PubChem BioAssay AID493208 (National Center for Advancing Translational Sciences (NCATS), 2011)
The whole screen tested about 44,000 compounds, of which about 340 (0.77%) were called active. Not shown: some 5% with an inconclusive outcome. Calls come from the whole dose curve; as a rule, active = well fitted inhibition curve with a large enough effect; inconclusive = small, poorly fitted or top-dose-only effect; inactive = flat fitted curve, though single readings scatter. This is one part of the list.

Assay: Acumen qHTS Assay for Inhibitors of the mTORC1 Signaling Pathway in MEF (Tsc2-/-, p53-/-) Cells: Sytravon;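 note: plate controls were DMSO for no effect and rapamycin for full effect; nearly all actives have a fitted effect of over 50% in size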
Conditions: phospho-rpS6 immunofluorescence/PI, 24 h; series mostly up to 38.3 µM; activity change, negative = inhibition: at the top concentration
How it was run: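 Tsc2-/-, p53-/- MEFs (empty-vector stable line) in DMEM + 10% FBS were treated with compounds 24 h at 37 degree Celsius, fixed, and immunostained for phospho-rpS6 (Alexa-488) with propidium iodide counterstain. Laser-scanning cytometry gave % positive cells, normalized against 7.5 nM rapamycin and DMSO.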

Activity change, negative = inhibition, inactive:
Cc1ccc(Cl)cc1NS(=O)(=O)c1cc2c3c(c1)CC(=O)N3CCC2 3.45%
Cc1ccc(CNC(=O)Cn2c(=O)n(-c3cccc(Cl)c3)c(=O)c3sc4ccccc4c32)cc1 -5.39%
CCOC(=O)C1CCCN(S(=O)(=O)c2csc(C(N)=O)c2)C1 (stereo not drawn) -0.533%
COc1ccccc1N1CCN(C(=O)c2cc3ccc4ccc(C)[nH]c4c3n2)CC1 5.41%
CCOc1ccc(-c2cc3nc(C4CCN(C(=O)OC(C)(C)C)CC4)c(C(=O)Nc4ccc(C)cc4C)cn3n2)cc1 -12.4%
CC(CNC(=O)CCCn1c(=O)c2cccn2c2cccnc21)c1ccccc1 (stereo not drawn) 1.22%
COc1cccc(CNC(=O)c2ccc(NC(=O)N3CC(C)Sc4ccccc43)cc2)c1 (stereo not drawn) -1.14%
Cc1ccccc1Nc1c(-c2ccncc2)nc2ccc(Cl)cn12 8.76%
COc1ccc(CCNC(=O)c2ccc(CNS(=O)(=O)c3ccccc3)cc2)cc1OC -2.45%
COc1cc(NC(=O)c2ccc(NC(=O)N3CCSc4ncccc43)cc2)cc(OC)c1 -3.59%
CCOc1cccc2sc(N(CCN(CC)CC)C(=O)c3ccco3)nc12 1.55%
CC(C)(C)OC(=O)N1CCC(c2c(C(=O)N3CCN(C(=O)c4ccco4)CC3)cnn2-c2ccccc2)CC1 0.365%
Cc1cccc(CCNC(=O)C2CCCN(S(=O)(=O)c3ccc4c(c3)oc(=O)n4C)C2)c1 (stereo not drawn) -4.18%
O=C(CSc1cn(CC(=O)N2CCCC2)c2ccccc12)Nc1cc(C(F)(F)F)ccc1Cl -26.8%
CCC1CN(C(=O)Nc2ccc(C(=O)O)cc2)c2cc(Cl)ccc2O1 (stereo not drawn) -7.23%
COc1cc(NC(=O)c2c(C)oc3ncnc(N4CCCCC4)c23)cc(OC)c1 -0.804%
Cc1ccc2c(c1)c(=O)c1ccccc1n2CCCC(=O)Nc1c(F)cccc1F -5.29%
CN(Cc1ccccc1)C(=O)c1cn(C)c2ccc(S(=O)(=O)N(C)C3CCCCC3)cc2c1=O -8.12%
CCCS(=O)(=O)c1nc(S(=O)(=O)c2ccc(C)cc2)c(NCc2ccccc2)s1 0.787%
CCOc1ccc(NC(=O)CCS(=O)(=O)c2ccc(Br)cc2)cc1 0.646%
COc1ccc(/C=C(/C#N)c2nc(-c3ccc(Br)cc3)cs2)cc1 -3.03%
Cc1cc(Br)ccc1NC(=O)C1CCN(S(=O)(=O)c2ccc(Br)s2)CC1 -3.04%
CCC(=O)N1CCc2cc(S(=O)(=O)CCC(=O)NCc3cccc(OC)c3)ccc21 2.28%
Cc1cccc(Cn2c(SCc3ccc(C(=O)NC4CCCCC4)cc3)nc3ccncc32)c1 -0.917%
COc1ccc(NC(=O)c2c(C)oc3ccc(O)c(CN4CCN(Cc5ccccc5)CC4)c23)cc1 -25.5%
Cc1ccc2c(c1)-c1c(cnn1CC(=O)Nc1ccccc1C#N)CO2 -7.62%
CC(=O)N1CCCc2cc(S(=O)(=O)N3CCCC(C(=O)N4CCN(c5cc(C)ccc5C)CC4)C3)ccc21 (stereo not drawn) -12.4%
Cc1ccc(OC(=O)CSc2nnc(CNC(=O)c3ccccc3)o2)cc1 -9.83%
CCc1ccc(C2=NN(CCC(=O)NCCc3ccc(Cl)cc3)C(=O)CC2)cc1 -5.77%
Cc1ccc(C(=O)COC(=O)CCC(=O)Nc2ccc(Oc3cc(C)ccc3C(C)C)cc2)cc1 0.578%
O=C(NCC(c1ccccc1)c1ccccc1)c1nn(-c2ccccc2F)nc1CO -4.79%
CCCn1c2ccccc2c2cnn(CC(=O)NC(CCSC)C(=O)OC)c(=O)c21 (stereo not drawn) -5.83%
Cc1ccc(CCNC(=O)CCSCc2ccccc2Cl)cc1 9.22%
CCOC(=O)c1nnc2c(-c3ccc(Cl)cc3)c(C)nn2c1C -1.5%
Cc1c(C(=O)NCCN(C)C)sc2nc3n(c(=O)c12)CCC3 2.66%
Cc1cc(C)cc(NC(=O)Cn2c3ncccc3c(=O)n2-c2ccc(C)c(C)c2)c1 -2.88%
O=C(NCc1ccccc1)c1ccc2c(c1)nc1n2CCCCC1 0%
Cc1ccc(CSc2ncc(Cl)c(C(=O)Nc3sc4c(c3C(N)=O)CCCC4)n2)cc1 -7.62%
O=C(Cn1cnc2nc3c(cc2c1=O)CCCC3)N1CCN(c2ccccc2)CC1 -7.07%
Cc1cccc(N2CCN(Cc3nnc(-c4ccc5c(c4)OCO5)o3)CC2)c1C -19.4%
CCc1nn2c(=O)cc(COc3ccc(/C=C(\C#N)C(=O)Nc4ccc(C)cc4)cc3)nc2s1 -8.08%
CCc1ccc(NC(=O)Cn2c(=O)n(CC3CCCO3)c(=O)c3cc(OC)c(OC)cc32)cc1 (stereo not drawn) -7.64%
O=C(Cn1c(=O)c2cccn2c2ccc(F)cc21)N1CCN(c2ccccc2)CC1 0%
Cc1ccc(-c2cc(C(F)(F)F)c(C#N)c(SCC(=O)O)n2)cc1 -13.9%
COc1ccc(NC(=O)Nc2ccccc2OCc2cc(=O)n3ccccc3n2)c(OC)c1 0%
Cc1ccccc1CNC(=O)C(=O)NCC(c1cccs1)S(=O)(=O)c1ccc(Cl)cc1 (stereo not drawn) 1.63%
O=C(CN1C(=O)C2CCCCN2c2ccc(C(=O)N3CCCC3)cc21)NCc1cccc(F)c1 (stereo not drawn) 0.873%
COCCN1Cc2cccc(C(=O)Nc3ccc(Cl)cc3Cl)c2C1=O -8.63%
CCN(CC)c1ccc(NC(=O)CN2C(=O)c3cccnc3Sc3ccccc32)c(C)c1 -1%
CC(=O)N1CCc2c(sc3c2c(=O)n(CCc2ccccc2)c(=O)n3Cc2cccc(C)c2)C1 -0.0801%
CCOc1cc(C2C(C(=O)OC)=C(C)NC3=C2C(=O)c2ccccc23)c(Br)cc1O (stereo not drawn) -5.84%
CC(=O)N1c2ccc(S(=O)(=O)N3CCN(c4cccc(Cl)c4)CC3)cc2CC1C (stereo not drawn) -8.23%
CC(C)NC(=O)Cn1nc(N2CCN(c3ccccc3)CC2)ccc1=O 5.64%
COc1ccc2oc(-c3ccc(C)c(NC(=O)CSc4ccc(Cl)cc4)c3)nc2c1 -10.4%
Cc1ccc(-c2c3c(=O)n(C)c(=O)n(C)c3cn2-c2cc(C)ccc2O)cc1 -0.728%
COc1ccc(N2CCN(C3C(=O)c4ccccc4N3C(C)=O)CC2)cc1 (stereo not drawn) 7.16%
Cc1c(Cl)cccc1NC(=O)CSc1nc(=O)n(Cc2cccnc2)c2c1CCC2 -2.95%
Cc1c(Cl)cccc1-n1ncc(C(=O)Nc2ccc(F)cc2F)c1C1CCN(C(=O)OC(C)(C)C)CC1 -3.24%
Cc1cc(Cl)ccc1NS(=O)(=O)c1ccc2c(c1)CC(C)N2C(=O)C1CCC1 (stereo not drawn) 0%
O=C1CC(c2nc(-c3ccccc3)no2)CN1c1ccc2c(c1)OCCO2 (stereo not drawn) -8.37%
COC(=O)C1CCN(C(c2ccccc2)c2sc3nc(-c4ccco4)nn3c2O)CC1 (stereo not drawn) -1.42%
Cc1ccc(Cn2cc(S(=O)(=O)c3ccc(C)cc3)c(=O)c3cc(F)c(N4CCCC4)cc32)cc1 -0.406%
Cc1ccc(CNC(=O)C2CCN(C(=O)c3cnn(-c4ccccc4)c3-n3cccc3)CC2)cc1 1.65%
CCOc1cccc(NC(=O)c2ccc(F)c(S(=O)(=O)N(CC)c3cccc(C)c3)c2)c1 1.48%
COc1ccc2c(c1)CC(C(=O)NCCN1CCN(c3cccc(C)c3C)CC1)CO2 (stereo not drawn) 1.43%
CC(C)CCNC(=O)Nc1cc(C(=O)NCc2cccc(F)c2)ccc1N1CCCC1 4.28%
COc1ccc2c(c1)c1c(c(=O)n(Cc3ccccc3)c(=O)n1CC(=O)Nc1ccc(C)cc1C)n2C -1.49%
O=C(C1CCN(S(=O)(=O)Cc2ccccc2)CC1)N1CCN(c2cccc(Cl)c2)CC1 -1.32%
O=C(Nc1nnc(S(=O)(=O)N2CCCCCC2)s1)c1ccccc1Br 7.26%
Cc1ccc(NC(=O)C2CCCN(S(=O)(=O)c3c(C)n[nH]c3C)C2)cc1C (stereo not drawn) -11.3%
CSc1cccc(NC(=O)C2CCN(S(=O)(=O)c3ccc4[nH]c5c(c4c3)CCCCC5)CC2)c1 -1.8%
CCOC(=O)c1ccc(CN(Cc2ccc(C)cc2)S(=O)(=O)c2ccc(NC(C)=O)cc2)cc1 -18.2%
COCCCNC(=O)CN1C(=O)CSc2ccc(S(=O)(=O)N3CCOCC3)cc21 -3.53%
CCn1cc2nc(SCc3ccc(F)cc3)n(Cc3ccc(Cl)cc3)c(=O)c2n1 6.59%
CCCS(=O)(=O)N1CC(=O)N(c2ccc(Cl)cc2)C(C)(C(=O)NC2CCCC2)C1 (stereo not drawn) -1.43%
CC(=O)Nc1ccc(Nc2nnc(-c3ccc(C)c(S(N)(=O)=O)c3)c3ccccc23)cc1 5.22%
Cc1ccc(NC(=O)c2oc3ccc(S(=O)(=O)N4CCC5(CC4)OCCO5)cc3c2C)c(C)c1 -4.41%
COCCn1c(SCC(=O)Nc2ccc(C(F)(F)F)cc2)nc2c([nH]c3ccccc32)c1=O 1.58%
Cc1ccc(NC(=O)C(=O)NCCc2csc3nc(-c4ccccc4C)nn23)cc1Cl -0.892%
O=C(NCc1ccc2c(c1)CCN2C(=O)c1ccccc1)c1ccco1 0.566%
O=C(Nc1ccc(S(=O)(=O)N(Cc2ccccc2)c2ccccc2)cc1)c1ccc([N+](=O)[O-])cc1 -3.56%
COc1cccc(N2CCN(C(=O)c3cc4c(=O)n(Cc5ccco5)ccc4nc3C)CC2)c1 -7.39%
O=C(NCc1ccccc1Cl)c1ccc(NC(=O)N2CCSc3ncccc32)cc1 -3.05%
CCC1=C(c2ccc(C)cc2)S(=O)(=O)N=C1N1CCC(C(=O)NCc2ccccc2Cl)CC1 1.17%
CCOC(=O)c1cc(S(=O)(=O)N2CCN(c3ccc(F)cc3)CC2)[nH]n1 -2.62%
CCCN(CCC)CCNC(=O)C1CCCN(S(=O)(=O)c2cccc3nsnc23)C1 (stereo not drawn) -0.457%
CCCCCOC(=O)c1ccc(OC(=O)c2sc3ncn(Cc4cccc(F)c4)c(=O)c3c2C)cc1 0.681%
CCOc1cc2[nH]c(=O)n(CCCC(=O)N3CCN(c4cccc(Cl)c4)CC3)c(=O)c2cc1OCC 0.376%
Cc1nc(SCc2ccc(Cl)cc2)c(C#N)c(C)c1Cl 2.38%
COc1ccc(OC)c(CNc2sc3c(c2C(=O)Nc2cc(OC)ccc2OC)CCCC3)c1 -0.118%
COc1ccc(OC)c(NC(=O)N2CCC(CN3CCCCC3)CC2)c1 2.95%
CC(C)Cn1cc(C(=O)N2CCN(c3cccc(Cl)c3)CC2)c2c3ccccc3n(C)c2c1=O 5.97%
CCOC(=O)c1cnc2ccc(OCC)cc2c1Nc1cc(Cl)c(OC)cc1OC -19.1%
